# Measurements reported in the supplement of paper PMC12632987.
# The full ranking holds about 4,500 sequences; the median of “median log2 fold change of GCK-ALFA target abundance (FLAG IP / Myc IP barcode read proportion)” is about 0.078, and the lowest 2% start at about -0.6. The list shows a part of the results.
# B1: GBRAP_125_3045 (protein)
# chain: GLEALVAALAALARRLGFSEEEVEEIARLAREHGVKGTLIAILLALGEEELAELAAKLTDEQVAEVLRALAAWLEAHPDASREEVLARLRELLEAALAKQ
# B2: GBRAP_160_4231 (protein)
# chain: SEVVERIVEITREELEEALELIAGESPEERAVILAVTVGRILLEVDEIEEATDEMEEVVDEEVERAAERLLAAADASPEELRALVEEAVRRLRERLEEVE
# B3: GBRAP_11_2796 (protein)
# chain: KKEKLEELAKELKKAAEALDALIKAGPGDKEGWKKAEELLEKAEKLAKEAGDEDTAELLEIAKEDLKKAKADPANRQQYLNNALAAVRVAEGLTLLKIEE
# B4: GBRAP_14_3797 (protein)
# chain: MEERKKKINEIAEETIEIVEEILEEAPEEVKEKVLELIEEARDKIIEENLNSDEAAELADELVEEVEKILEEAPEEVKAEVLAAVAVLGGEIILEIEELE
# B5: GBRAP_160_4059 (protein)
# chain: EESKEELLESVEEARELILETLDEEGVEAALVVAAGEFGAVIMEASEDEDADEELEDRLAEIRDDLLARLKAAKDASKEEQKKIVEEAAERAKEAIEELY
# B6: GBRAP_14_3819 (protein)
# chain: LEELKAEIKKILDELEKELVEDLGLDEEEVTKLVEKALEEIFKALEEGENPEEKIEEIFEKLEKEVVKLAAKLGADTAAAARALVTDAKYEVLELIEKHS
# B7: GBRAP_83_6912 (protein)
# chain: KEKVAVATTGDNIEEAVDAVIDLTKEEGYEVSLEILSTKEDKEKILKAVERLAKAGIETEVTILLFGATEEEAKELEKELKEIAKKYGVNIKIEVILIEE
# B8: GBRAP_52_6165 (protein)
# chain: AAARAKALAEELVAAVKAGDEERVEEILEEAARTMDDEELALFLDALAAAVAGLTPEEKERVVEAAIRFEDIAVEAGHDEELLSYHVARVAGAAYDALQA
# B9: GBRAP_42_5724 (protein)
# chain: MYLVDLEVYVETLEELEEADKIVEEKNEEYEKKYGIIIRLEVTAPEEIEEKAKEINEKFEEIAKKATKEHDWVFVASSAKEVEKAIEAGVDEALEEIKEE
# B10: GBRAP_184_5254 (protein)
# chain: STLERVIEAENVEELRKKMAEIREEALASGADVLLTLEVKELTKEMIEALAEEIKKLREEGYTGKVTVGITALLSEEMVDYAIELFDEAGAQVVLALPEE
# B11: GBRAP_52_5891 (protein)
# chain: KLEEAVEKLKKAVEAMKAGDKEEAEKILKEIVENFDEETILAAVEKLAEEMETKSLEDAEAFYETALLLAEIILEAGGSEEIASYIEAIAGGTLYKISQK
# B12: GBRAP_52_6078 (protein)
# chain: MEEEIEKIAEEIVEAIEAGDKEKALKIIEEAIKKLSVEEIKKMLELAAKKVAELGEEKHELFVDVLDEAEELLLKAGISEEDALLIVGAAEAALAKAVAA
# B13: GBRAP_128_3188 (protein)
# chain: SVEEVKAYTAEAMDKIKNSDKETARKIAEELMERLKTWSLEEVEAAVEVVLEKLPELSAEHLEILADVSREKLPEFTPEKANLVAEVEVEALNLLEELEE
# B14: GBRAP_128_3183 (protein)
# chain: SMEEVRARTREAMEAIRNSSPEEARRIATELMEWMLTLSLEEVEAAAEVILEMLPELSAEKLEILADVMRELRPRFSPEKAEIVAGVEVEALNEAEELEE
# B15: GBRAP_52_5883 (protein)
# chain: SLEEAIKLLKEMVKAVKEGKKEEAEKIAKKIVKEFSDETILEAVKELAKEVLEKSLEEAEAFFEAAELLADVLIEEGGDENIASEIEAIAGAALYEVEQK
# B16: GBRAP_184_5112 (protein)
# chain: MTLERTIKVENLEEAKEKLTKVVNEAKAKKADLLVIVEVPNLTPELAQVIMDQAAAAKAAGIKNVLVEIVSDNLSEEVRDTIYEKADKYGLTNVVLAEEE
# B17: GBRAP_11_2705 (protein)
# chain: KKEKLKEGAELAKKAAELIKQLLEKGVDDQELLKQLEETIKKLKELTEKYGDESHKKLAEIAEELFKKALEDPENAEQYLQELLATLRVLEGQYLLDIEE
# B18: GBRAP_80_6818 (protein)
# chain: MEEEIEAYLKEIEKIDKELAKIVKEAVEIAKELGVPLKEIARLVKALAELAKLDLEKAKKLAEELLKKLKEAKEKGDKEYALAEVVDATSEALLEVEELE
# B19: GBRAP_160_4722 (protein)
# chain: SEKIKEFVKEAREELLKAVEDSEGESRENARALFEGAAGEILMDAFENPFFTDEMEDVVDEILDKLVEELVANYDASLEEKKAIVEKYMEELEKKLLEIA
# Biological target: GABARAP, O95166
# Sequence (O95166 whole entry, the tested form may be a part): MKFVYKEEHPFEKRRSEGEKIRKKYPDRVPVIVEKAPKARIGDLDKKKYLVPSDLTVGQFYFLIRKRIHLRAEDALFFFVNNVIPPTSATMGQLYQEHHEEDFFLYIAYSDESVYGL
# Assay: median log2 fold change of GCK-ALFA target abundance (FLAG IP / Myc IP barcode read proportion) (log2 ratio); each designed protein is fused to an ALFA-tag nanobody in HEK293 cells to bring the named protein to FLAG-tagged glucokinase (GCK); Myc marks an untargeted standard; higher = target protein stabilised (more abundant)
# Details: target protein: 3xFLAG-MCP-GCK-ALFA reporter; HEK293 landing pad (RPLP)
# In short: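 Binders fused to an ALFA nanobody were recombined as a library into HEK293 landing-pad cells, which were induced with 2 μg mL^−1 doxycycline and then transfected to express a FLAG-tagged target and a Myc-tagged standard. After 48 h, circular RNA barcodes recovered by anti-FLAG and anti-Myc immunoprecipitation of lysates were reverse transcribed, amplified and sequenced. Each binder's target abundance is the median log2 ratio of FLAG to Myc barcode read proportions, from barcodes present at ≥10^−7 in both replicates, binders carrying ≥3 barcodes per replicate, a 10^−6 pseudocount and pooled replicates.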
row,Binder,median log2 fold change
1,B1,-0.33
2,B2,-0.25
3,B3,0.0688
4,B4,-0.167
5,B5,0.0274
6,B6,0.361
7,B7,-0.0598
8,B8,0.0686
9,B9,-0.157
10,B10,0.0348
11,B11,0.421
12,B12,-0.254
13,B13,-0.0272
14,B14,0.186
15,B15,0.0979
16,B16,0.114
17,B17,0.367
18,B18,0.0801
19,B19,-0.454
